# Reference: PubChem BioAssay (Tox21)
# Where “and” joins values, the source holds several entries; their conditions need not be identical. Equal entries are not always repeated. Inconclusive means that the source gave no clear call. Such entries were picked first, then a sample of the others. A potency beside an inconclusive call is a rough fit, not a confirmed value. The source holds several records for some structures; these can differ, active in one and inactive in another. Calls of active or inactive are those of the source. Calls come from the whole dose curve; as a rule, active = well fitted cell-killing curve with a large enough effect in the repeat runs; inconclusive = weak or mixed curves; inactive = no such curve, though single readings can be large or run the other way. *1 amine or outer side, *2 acyl side, *3 side chain or, on linkers, in order; H or OH if unused. Where a SMILES comes first, the peptide text is derived from it. Bridges are numbered along the chain shown (N, C = ends). Roman numbers before positions name the chains, in order. [ ]: non-standard residue; d: D form. Actinocin(9to1) = Cc1c2oc3c(C)ccc(C(=O)[*:1])c3nc-2c(C(=O)[*:2])c(N)c1=O; NMeV = CN[C@H](C(=O)O)C(C)C; Sar = CNCC(=O)O
# Test: qHTS assay for identifying genotoxic compounds that show differential cytotoxicity against isogenic chicken DT40 cell lines with known DNA damage response pathways - Rad54/Ku70 mutant cell line (AID 743015); note: nearly all actives have a fitted effect of over 60% in size
# Conditions: DT40 Rad54/Ku70 mutant viability, CellTiter-Glo, 40 h; activity change, negative = cytotoxicity: at 66.8 µM (top of the series)
# % is set by controls: 0 for no effect and ±100 for the full control effect; potency is the fitted concentration of half-maximal effect; tags give direction and shape of the fitted curve.
SMILES,Potency,"activity change, negative = cytotoxicity"
COc1cccc(OC)c1C(=O)N[C@@H]1C(=O)N2[C@@H]1SC(C)(C)[C@@H]2C(=O)O,inactive,–
CNCCCC12CCC(c3ccccc31)c1ccccc12,active: 13.3 µM and active: 6.86 µM,–
Cc1ccc([N+](=O)[O-])c(N)c1,inactive,–
CC(C)(C)NC(=O)[C@@H]1CN(Cc2cccnc2)CCN1C[C@@H](O)C[C@@H](Cc1ccccc1)C(=O)N[C@H]1c2ccccc2C[C@H]1O,"inconclusive: 45.5 µM [cytotoxic, partial curve]",–
C/C=C/c1ccc(O)c(OC)c1,inconclusive: 54.5 µM [cytotoxic],–
C#C[C@]1(O)CC[C@H]2[C@@H]3[C@H](C)CC4=C(CCC(=O)C4)[C@H]3CC[C@@]21C,active: 21.1 µM,–
Nc1cc(S(=O)(=O)O)cc2cc(S(=O)(=O)O)cc(O)c12,inactive and active: 61.1 µM,–
CCC(C)c1cc([N+](=O)[O-])cc([N+](=O)[O-])c1OC(=O)OC(C)C (stereo not given),active: 30.6 µM,–
O=C1NC(=O)c2ccccc21,inactive,–
CC1Cc2ccccc2N1NC(=O)c1ccc(Cl)c(S(N)(=O)=O)c1 (stereo not given),"inconclusive: 14.3 µM [cytotoxic, partial curve, poor fit]",–
Nc1ccc(N)c(Cl)c1,"inconclusive: 68.5 µM [cytotoxic, single point] and inactive",–
Clc1sc(Cl)c(Cl)c1Cl,inactive,–
NC(=O)C(=O)N/N=C/c1ccc([N+](=O)[O-])o1,active: 16.8 µM,–
NC(=O)c1ccccc1N,inactive,–
O=C(CCCCCCCCC#CI)Oc1ccccc1,"inconclusive: 3.76 µM [cytotoxic, full curve]",–
O=C(O)Cn1c(=O)n(Cc2ccc(Br)cc2F)c(=O)c2ccc(Cl)cc21,inactive,–
CN1C[C@H](C(=O)N[C@]2(C)O[C@@]3(O)[C@@H]4CCCN4C(=O)[C@H](Cc4ccccc4)N3C2=O)C[C@@H]2c3cccc4[nH]cc(c34)C[C@H]21,active: 16.8 µM,–
CNc1ccc(O)cc1,active: 10.8 µM,–
CCCOc1ccc2nc(NC(=O)OC)[nH]c2c1,active: 0.335 µM,–
C[C@]12C=CC(=O)C=C1CC[C@@H]1[C@@H]2C(=O)C[C@@]2(C)[C@H]1CC[C@]2(O)C(=O)CO,"inconclusive: 15.4 µM [cytotoxic, full curve, poor fit]",–

SMILES,Potency,"activity change, negative = cytotoxicity"
O=C(O)Cc1ccccc1Oc1ccc(Cl)cc1Cl,inactive,–
CN1CCCC(CC2c3ccccc3Sc3ccccc32)C1 (stereo not given),active: 8.04 µM,–
Oc1ccc(Cl)c2cccnc12,active: 6.68 µM,–
CCc1cc(C(C)(C)C)c(O)c(C(C)(C)C)c1,"inconclusive: 15.4 µM [cytotoxic, full curve]",–
CCCCCOC(=O)CCCC,inactive,–
COC(=O)c1cccc(C(=O)OC)c1,–,inconclusive: -43.6%
"Cc1c2oc3c(C)ccc(C(=O)N[C@@H]4C(=O)N[C@H](C(C)C)C(=O)N5CCC[C@H]5C(=O)N(C)CC(=O)N(C)[C@@H](C(C)C)C(=O)O[C@@H]4C)c3nc-2c(C(=O)N[C@@H]2C(=O)N[C@H](C(C)C)C(=O)N3CCC[C@H]3C(=O)N(C)CC(=O)N(C)[C@@H](C(C)C)C(=O)O[C@@H]2C)c(N)c1=O (I: T[dV]P[Sar][NMeV] / II: T[dV]P[Sar][NMeV]; ester I:1-I:C, II:1-II:C; linker I:N-II:N via Actinocin(9to1))",–,inconclusive: -95.4%
O=[Se](O)O,active: 244 nM and active: 2.34 µM,–
CCOC(=O)c1ccccc1C(=C1C=C(Br)C(=O)C(Br)=C1)c1cc(Br)c(O)c(Br)c1,inconclusive: 51.3 µM [cytotoxic],–
CC(C)=CCC/C(C)=C\CO,"inconclusive: 68.6 µM [cytotoxic, single point]",–
C=CC(=O)OCCn1c(=O)n(CCOC(=O)C=C)c(=O)n(CCOC(=O)C=C)c1=O,active: 2.43 µM,–
COC(=O)c1ccccc1,"inconclusive: 68.6 µM [cytotoxic, partial curve, poor fit]",–
Nc1c(N=Nc2ccc(-c3ccc(N=Nc4cc(S(=O)(=O)O)c5ccccc5c4N)cc3)cc2)cc(S(=O)(=O)O)c2ccccc12,"inconclusive: 26.6 µM [cytotoxic, partial curve]",–
CCCCNc1c(C(=O)OCC)c(C)nc2c1cnn2CC,active: 26.6 µM,–
CC(C)COC(=O)c1ccc(N)cc1,inactive,–
CC#C[C@]1(O)CC[C@H]2[C@@H]3CCC4=CC(=O)CCC4=C3[C@@H](c3ccc(N(C)C)cc3)C[C@@]21C,active: 5.96 µM and active: 21.7 µM,–
C=C(CC)C(=O)c1ccc(OCC(=O)O)c(Cl)c1Cl,active: 29.8 µM and active: 48.2 µM,–
O=C1c2ccccc2C(=O)N1CCc1noc(-c2ccc(CN3CCCCCC3)s2)n1,active: 39.7 µM,–
C=C1CC[C@H](O)C/C1=C\C=C1/CCC[C@]2(C)[C@@H]([C@H](C)CCCC(C)C)CC[C@@H]12,active: 13.3 µM and active: 15.2 µM,–
CN[C@H]1CC[C@@H](c2ccc(Cl)c(Cl)c2)c2ccccc21,active: 7.5 µM,–
